According to PubChem BioAssay AID624417 (National Center for Advancing Translational Sciences (NCATS), 2012):
Screen size: about 410,000 compounds; about 6,400 (1.6%) were called active. The shares of active, inactive and inconclusive entries below differ from those in the screen. Calls follow the shape of the dose curve; as a rule, active = well fitted inhibition curve with a large enough effect; inconclusive = small, poorly fitted or top-dose-only effect; inactive = no such curve, though single readings can be large or run the other way. Potencies of inconclusive entries are doubtful fits and often do not repeat.

target: Glucagon-like peptide 1 receptor (Homo sapiens) (UniProt P43220); assay: qHTS of GLP-1 Receptor Inverse Agonists (Inhibition Mode); details: HEK293 GLP-1R CRE-luciferase, luminescence, 24 h, GLP-1R form is constitutively active; activity change, negative = inhibition: at 38.3 µM (top of the series) unless noted; also: nearly all actives have a fitted effect of over 55% in size
UniProt P43220, sequence (P43220 whole entry, looked up): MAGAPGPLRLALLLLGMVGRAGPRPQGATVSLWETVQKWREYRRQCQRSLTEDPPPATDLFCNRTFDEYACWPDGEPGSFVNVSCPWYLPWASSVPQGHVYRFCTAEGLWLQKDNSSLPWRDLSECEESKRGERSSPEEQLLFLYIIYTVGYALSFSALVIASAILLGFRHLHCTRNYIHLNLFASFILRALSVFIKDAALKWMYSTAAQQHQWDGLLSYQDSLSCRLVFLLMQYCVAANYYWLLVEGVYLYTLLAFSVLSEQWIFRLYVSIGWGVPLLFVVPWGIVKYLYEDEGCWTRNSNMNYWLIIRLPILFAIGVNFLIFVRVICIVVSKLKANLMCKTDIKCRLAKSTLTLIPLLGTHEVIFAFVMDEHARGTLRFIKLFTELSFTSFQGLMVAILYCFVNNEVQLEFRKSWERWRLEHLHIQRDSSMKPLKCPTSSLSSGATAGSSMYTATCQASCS
Method in brief: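 Seeding at 200 cells/uL, 12 h culture, 24 hr compound treatment, then luciferase reagent and a luminescence read; cells are HEK293 stably expressing a constitutively active GLP-1R plus cAMP-responsive luciferase.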
% is scaled to controls: 0 for no effect and ±100 for the full control effect; potency is read from the fitted curve at half-maximal effect; tags tell the direction and shape of the fitted curve.

Potency, active:
COc1cccc(C(=O)O/N=C(\N)c2ccccn2)c1OC 7.94 µM
O=C(O)c1ccccc1N/N=C\c1ccnc2ccccc12 4.47 µM
CCOc1ccc(/C=C2/SC(=S)N(n3c(C)ccc3C)C2=O)cc1 7.08 µM
O=C1C(=C(c2ccccc2)c2ccccc2)Nc2ccccc21 3.16 µM

Potency, inconclusive:
O=C(Cn1cc(SCc2cccc(Cl)c2)c2ccccc21)N1CCCCC1 11.2 µM [inhibitor, single point]
CCN(CC(O)CON=C1c2ccccc2-c2ccccc21)S(=O)(=O)c1ccc(Cl)cc1 (centres undefined) 7.94 µM [inhibitor, partial curve, poor fit]
CCOc1ccc(NC(=O)CC2C(=O)N(c3ccccc3)C(=O)N2CCc2sccc2C)cc1 (centres undefined) 14.1 µM [inhibitor, single point]
c1ccc(-c2noc(-c3ccccc3-c3ccccc3)n2)cc1 11.2 µM [inhibitor, partial curve, poor fit]
NNC(=S)NCc1ccc2c(c1)OCO2 14.1 µM [inhibitor, single point]
Cc1ccc(NC(=O)N2CCC3(CC2)Oc2ccccc2C(=O)N3Cc2ccc(F)cc2)cc1 3.16 µM [inhibitor, single point]
COc1ccc(OCCNC(=O)CSc2ccc(C(F)(F)F)cc2[N+](=O)[O-])cc1 22.4 µM [inhibitor, single point]
N#Cc1c(NC(=O)CN2CCN(C(=O)c3ccco3)CC2)sc2c1CCCCC2 7.94 µM [inhibitor, partial curve, poor fit]
CCN(CC(=O)NCc1cccs1)C(=O)/C=C/c1cc(Br)ccc1OC(F)F 28.2 µM [inhibitor, single point]
CO/N=C(\c1nonc1N)N1CCN(c2ccc(Cl)cc2[N+](=O)[O-])CC1 20 µM [inhibitor, single point]
CCCCC(=O)Nc1cc(C(=O)NCCc2ccccc2)ccc1Cl 11.2 µM [inhibitor, single point]
Cn1cc(S(=O)(=O)N2CCCC2)cc1C(=O)N1CCN(c2cccc(Cl)c2)CC1 12.6 µM [inhibitor, single point]
Cc1ccc(N2C(=O)c3n[nH]c(C)c3C2c2ccccc2Cl)cc1 (centres undefined) 10 µM [inhibitor, single point]
CCN(CC)CCCNC(=O)c1ccc(N2CCCCC2)c(NS(=O)(=O)c2ccc(C)cc2)c1 12.6 µM [inhibitor, single point]
COc1ccc(NC(=O)c2cc(C3CCCCN3C(=O)c3ccc(Cl)cc3)on2)c(C)c1 (centres undefined) 28.2 µM [inhibitor, single point]
O=C(CNCC1CCCO1)Nc1ccccc1N1CCCCCC1 (centres undefined) 7.08 µM [inhibitor, partial curve, poor fit]
Cc1ccc(Cn2c(SCC(=O)N/N=C/c3ccc(C)o3)nc3ccccc32)cc1 28.2 µM [inhibitor, single point]
CCCCN(CCCNC(=O)c1ccc(CS(=O)(=O)c2c(Cl)cccc2Cl)o1)Cc1ccccc1 28.2 µM [inhibitor, partial curve, poor fit]
COc1cc(C(=O)COC(=O)C2CCN(c3ccc(C(F)(F)F)cn3)CC2)ccc1OC(F)F 28.2 µM [inhibitor, single point]
CC1=C(C)C(OCCBr)N(c2cc(O)c(Cl)cc2F)C1=O (centres undefined) 11.2 µM [inhibitor, single point]
CCOC(=O)c1c(-c2ccccc2)oc2ccc(O)c(CN3CCOCC3)c12 14.1 µM [inhibitor, partial curve, poor fit]
COc1ccc(NC(=S)NNc2ccc([N+](=O)[O-])cc2S(=O)(=O)Nc2ccc(C)cc2C)cc1 12.6 µM [inhibitor, partial curve, poor fit]
COc1ccc(N2CCN(C(CNC(=O)c3ccc4c(c3)OCO4)c3ccco3)CC2)cc1 (centres undefined) 3.16 µM [inhibitor, full curve, poor fit]
O=C(CCC1CCCC1)NCCCNC(=O)CCC1CCCC1 28.2 µM [inhibitor, single point]
CCN(CC)CCN(Cc1cc2cccc(C)c2[nH]c1=O)C(=S)Nc1ccccc1 5.62 µM [inhibitor, partial curve, poor fit]
CCc1ccccc1NC(=O)CSc1ncc2c(n1)-c1cc(Cl)ccc1N(Cc1ccccc1)S2(=O)=O 0.501 µM [inhibitor, full curve, poor fit]
COc1ccc(S(=O)(=O)N2CCCCCC2)cc1C(=O)OCc1cccc(OC)c1OC 12.6 µM [inhibitor, partial curve, poor fit]
CCc1ccccc1S(=O)(=O)Cc1ccc(C(=O)NCCc2ccc(C)cc2)o1 28.2 µM [inhibitor, single point]
CCOC(=O)c1ccc(NC(=S)N(CCCN2CCN(CC)CC2)Cc2cccs2)cc1 28.2 µM [inhibitor, single point]
COC(=O)c1ccc(CO/N=C/c2ccc(OC)cc2)o1 10 µM [inhibitor, single point]
COc1ccc(C=C2CS(=O)(=O)CC(=Cc3ccc(OC)cc3)C2=O)cc1 28.2 µM [inhibitor, single point]
COc1cc(OC)cc(C(=O)NCCSCc2ccc(Cl)cc2)c1 8.91 µM [inhibitor, single point]
COc1ccc(N2CCN(CCCNC(=O)c3cnn(-c4ccc(C)cc4)c3-n3cccc3)CC2)cc1 15.8 µM [inhibitor, partial curve, poor fit]
CCc1ccc(-n2cc(-c3ccc(F)cc3)[n+]3c2SCCC3)cc1 28.2 µM [inhibitor, single point]
COc1ccccc1CNC(=O)Cn1cccc1C(=O)c1ccccc1C 11.2 µM [inhibitor, partial curve, poor fit]
O=C(Nc1ccccc1Cl)N1CCN(C/C=C/c2ccccc2)CC1 11.2 µM [inhibitor, partial curve, poor fit]
CC(=O)Nc1cccc(-c2cc(NC(C)=O)c3ncc(-c4ccc(C(C)=O)cc4)n3c2)c1 8.91 µM [inhibitor, partial curve, poor fit]
O=C(Nc1nccs1)c1ccc(CSc2ccccc2)o1 28.2 µM [inhibitor, single point]
O=C(Nc1cccc(-c2cccc(Cl)c2)c1)C1CCN(Cc2ccon2)CC1 7.94 µM [inhibitor, partial curve, poor fit]
CC(C)[C@H](NC(=O)c1ccco1)C(=O)Nc1ccc(OC(F)F)cc1 12.6 µM [inhibitor, single point]
O=C(CCc1cccc(Cl)c1)N1CCCC(Nc2ccccc2)C1 (centres undefined) 11.2 µM [inhibitor, partial curve, poor fit]
CC(C)CNC(=S)NC(=O)c1ccccc1Cl 12.6 µM [inhibitor, single point]
COc1ccc(CCNC(=S)Nc2cccc(C)c2)cc1 12.6 µM [inhibitor, partial curve, poor fit]
Cc1ccc(C)c2c1[nH]c1ccc([N+](=O)[O-])cc12 12.6 µM [inhibitor, single point]
O=C(NC(=S)Nc1ccccc1Cl)C1CC1 28.2 µM [inhibitor, single point]
CC12CCC(C(=O)Nc3ccccc3Br)(C/C1=N\O)C2(C)C (centres undefined) 1.12 µM [inhibitor, full curve, poor fit]

Activity change, negative = inhibition, inactive:
CN(C)Cc1c(C(=O)N/N=C/C=C/c2ccccc2)nnn1-c1nonc1N 7.69%
Cc1c2cnn(CC(=O)NC(C)C)c(=O)c2c(C)n1Cc1cccc(Cl)c1 1.3%
CCOC(=O)c1c(C)[nH]c(C(=O)N(C)CC(=O)Nc2ccc(OC)cc2)c1C -3.93%
O=C(Cc1ccc(Cl)cc1)Nc1ccccc1C(=O)N1CCCC1 5.38%
COc1cccc(C2=NN(C(=O)c3ccco3)C(O)(C(F)(F)F)C2)c1 (centres undefined) -30%
CC1(c2ccccc2)NC(=O)N(CC(=O)NNC(=O)c2cccc(Cl)c2)C1=O (centres undefined) -6.25%
COc1ccc(CCNC(=O)CCc2c(C)nc3c4cccnc4nn3c2C)cc1OC 4.84%
COc1ccccc1N1CCN(C(=O)CCC(=O)N2CCN(c3ccccc3OC)CC2)CC1 -11.1%
N#CC1=C(N)C(C#N)(C#N)C(c2cccnc2)C2CN(C(=O)OCc3ccccc3)CC=C12 (centres undefined) 66.1%
COc1cccc(N2CCN(C3=NS(=O)(=O)C(c4ccc(C)cc4)=C3C)CC2)c1 10.9%
Cc1cc(C)cc(C(=O)NCCc2csc(-c3ccc(C(F)(F)F)cc3)n2)c1 7.64%
CSc1ccccc1NC(=O)CN(C)CC(=O)Nc1c(F)cccc1F 12.6%
NC(=O)c1ccc(NC(=O)COC(=O)/C=C/c2cn(-c3ccccc3)nc2-c2cccnc2)cc1 11.4%
Cc1ccc(Nc2nc(N)nc(COC(=O)C3=COCCO3)n2)cc1 21.6%
